This is one part of the list. Most values come without repeats; read them as rough.
Tests used:
Assay in all cases: cell count relative to DMSO control; melanoma cells; higher = more viable cells
Conditions in all cases: library dose: low library concentration; 72 h
MeWo = test system: MeWo
RPMI7951 = test system: RPMI7951
RVH-421 = test system: RVH-421
SkMel28 = test system: SkMel28
SkMel30 = test system: SkMel30
SkMel5 = test system: SkMel5
UACC257 = test system: UACC257
UACC62 = test system: UACC62
WM115 = test system: WM115
WM1716 = test system: WM1716
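Note: cell number obtained by counting DAPI-stained nuclei in high-throughput microscope images with image analysis software, screen run in 1,536-well plates.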

| SMILES | cell count (MeWo) | cell count (RPMI7951) | cell count (RVH-421) | cell count (SkMel28) | cell count (SkMel30) | cell count (SkMel5) | cell count (UACC257) | cell count (UACC62) | cell count (WM115) | cell count (WM1716) |
| --- | --- | --- | --- | --- | --- | --- | --- | --- | --- | --- |
| COc1cc(N2CCC(N3CCN(C)CC3)CC2)ccc1Nc1ncc(Cl)c(Nc2ccccc2S(=O)(=O)C(C)C)n1 + Cn1cc(/C=C2\C(=O)Nc3cccnc32)c2ccccc21 [GW441756] (first compound 0.08 µM, partner dose 0.4 µM) | 95.5% | 95.2% | 96.7% | 87.8% | 100% | 75.4% | 84.7% | 89.5% | 95.9% | 106% |
| COc1cc2ncnc(Nc3ccc(Oc4ccccc4)cc3)c2cc1OC + Oc1cc(-c2nc(-c3ccccc3)[nH]c2-c2ccncc2)ccc1Cl [L779450] (first compound 2 µM, partner dose 0.2 µM) | 113% | 108% | 96.6% | 68.9% | 114% | 96.7% | 96.5% | 71.2% | 83.7% | 136% |
| O=C1NC(=O)/C(=C/c2ccc(-c3ccc(F)cc3O)o2)S1 + CC(C)CCN1c2nc(Nc3cc(F)c(O)c(F)c3)ncc2N(C)C(=O)C1C [BID1870] (first compound 1 µM, partner dose 0.2 µM) | 10.1% | 105% | 106% | 84.6% | 80.3% | 92.9% | 75.4% | 83.6% | 104% | 88.4% |
| O=C(O)C(=O)Nc1sc2c(c1C(=O)O)CCNC2 + O=C1NC(=O)/C(=C/c2ccc(-c3ccc(F)cc3O)o2)S1 [AS252424] (first compound 1.66667 µM, partner dose 1 µM) | 94.4% | 92.4% | 116% | 87.6% | 95.6% | 74.9% | 93% | 85% | 101% | 109% |
| COc1ccc2c(c1)CCC1C2CCC2(C)C(NCCCCCCN3C(=O)C=CC3=O)CCC12 (stereo not given) + COc1ccc(-c2ccc3c(N4CCOCC4)nc(N4C[C@@H](C)O[C@@H](C)C4)nc3n2)cc1CO [KU0063794] (first compound 0.4 µM, partner dose 0.02 µM) | 93.6% | 66.5% | 101% | 91.7% | 111% | 93.6% | 61.7% | 89.7% | 82.2% | 82.2% |
| COc1ccc(COc2ccc(Cc3cnc(N)nc3N)cc2OC)cc1 + Cn1cc(/C=C2\C(=O)Nc3cccnc32)c2ccccc21 [GW441756] (first compound 1 µM, partner dose 0.4 µM) | 107% | 105% | 95.1% | 84.6% | 94.9% | 79.8% | 72.2% | 94.6% | 106% | 105% |
| O=S(=O)(c1ccccc1)N(CC(F)(F)F)c1ccc(C(O)(C(F)(F)F)C(F)(F)F)cc1 + CC(C)CCN1c2nc(Nc3cc(F)c(O)c(F)c3)ncc2N(C)C(=O)C1C [BID1870] (first compound 1.4 µM, partner dose 0.2 µM) | 88.8% | 106% | 92.5% | 81.8% | 84.5% | 72.7% | 87.1% | 91.7% | 78.8% | 94.1% |
| O=C1NC(=O)/C(=C/c2ccc(-c3ccc(F)cc3O)o2)S1 + Cc1cc([N+](=O)[O-])ccc1NS(=O)(=O)c1cc(Cl)ccc1Cl [FH535] (first compound 1 µM, partner dose 1 µM) | 89.8% | 106% | 106% | 91% | 94.1% | 80.5% | 88.3% | 85.1% | 86.1% | 98.8% |
| c1cc(-c2cnn3cc(-c4ccc(OCCN5CCCCC5)cc4)cnc23)ccn1 [Dorsomorphin] + CCCCCCCCCCCC1=C(O)C(=O)C=C(O)C1=O [Embelin] (first compound 0.4 µM, partner dose 1.2 µM) | 101% | 108% | 122% | 90.3% | 95.1% | 109% | 86% | 97.7% | 102% | 122% |
| Cn1cc(/C=C2\C(=O)Nc3cccnc32)c2ccccc21 + O=c1cc(-c2cccc3c2Sc2ccccc2S3)oc(N2CCOCC2)c1 [KU55933] (first compound 0.4 µM, partner dose 1 µM) | 119% | 94.6% | 114% | 92.8% | 91.3% | 89% | 96.8% | 95.6% | 117% | 108% |
| Oc1cc(-c2nc(-c3ccccc3)[nH]c2-c2ccncc2)ccc1Cl + c1cc(-c2cnn3cc(-c4ccc(OCCN5CCCCC5)cc4)cnc23)ccn1 [Dorsomorphin] (first compound 0.2 µM, partner dose 0.4 µM) | 92.2% | 100% | 81.8% | 76.6% | 89.6% | 80.4% | 68.4% | 53.9% | 58.7% | 107% |
| O=S(=O)(c1ccccc1)N(CC(F)(F)F)c1ccc(C(O)(C(F)(F)F)C(F)(F)F)cc1 + Cc1cc([N+](=O)[O-])ccc1NS(=O)(=O)c1cc(Cl)ccc1Cl [FH535] (first compound 1.4 µM, partner dose 1 µM) | 91.2% | 110% | 94.6% | 84.7% | 77.5% | 87.8% | 98.2% | 76% | 89.9% | 110% |
| COC(=O)c1sccc1S(=O)(=O)Nc1ccc(Nc2ccccc2)cc1OC + Cn1cc(/C=C2\C(=O)Nc3cccnc32)c2ccccc21 [GW441756] (first compound 1 µM, partner dose 0.4 µM) | 98.5% | 94.7% | 108% | 98.4% | 92.3% | 70.5% | 103% | 104% | 94.1% | 100% |
| COc1ccc(COc2ccc(Cc3cnc(N)nc3N)cc2OC)cc1 + Oc1cc(-c2nc(-c3ccccc3)[nH]c2-c2ccncc2)ccc1Cl [L779450] (first compound 1 µM, partner dose 0.2 µM) | 104% | 104% | 101% | 80.4% | 97.9% | 103% | 90.8% | 70.7% | 89.5% | 120% |
| COC(=O)c1sccc1S(=O)(=O)Nc1ccc(Nc2ccccc2)cc1OC + COc1ccc(-c2ccc3c(N4CCOCC4)nc(N4C[C@@H](C)O[C@@H](C)C4)nc3n2)cc1CO [KU0063794] (first compound 1 µM, partner dose 0.02 µM) | 99.5% | 93.7% | 109% | 86.4% | 97.3% | 95.7% | 93.5% | 96.2% | 92.1% | 102% |
| COc1ccc2c(c1)CCC1C2CCC2(C)C(NCCCCCCN3C(=O)C=CC3=O)CCC12 (stereo not given) + O=C1NC(=O)/C(=C/c2ccc(-c3ccc(F)cc3O)o2)S1 [AS252424] (first compound 0.4 µM, partner dose 1 µM) | 104% | 75.6% | 82% | 94.5% | 65% | 111% | 115% | 80.5% | 85.2% | 92.2% |
| O=S(=O)(c1ccccc1)N(CC(F)(F)F)c1ccc(C(O)(C(F)(F)F)C(F)(F)F)cc1 + O=c1cc(-c2cccc3c2Sc2ccccc2S3)oc(N2CCOCC2)c1 [KU55933] (first compound 1.4 µM, partner dose 1 µM) | 92.9% | 95.6% | 103% | 94.4% | 95.7% | 85.2% | 90% | 90% | 97.9% | 104% |
| COc1ccc(-c2ccc3c(N4CCOCC4)nc(N4C[C@@H](C)O[C@@H](C)C4)nc3n2)cc1CO + Cc1cc([N+](=O)[O-])ccc1NS(=O)(=O)c1cc(Cl)ccc1Cl [FH535] (first compound 0.02 µM, partner dose 1 µM) | 91.2% | 104% | 99.9% | 87.7% | 72.2% | 84.6% | 88.7% | 89.7% | 95.8% | 91.3% |
| COc1ccc(-c2ccc3c(N4CCOCC4)nc(N4C[C@@H](C)O[C@@H](C)C4)nc3n2)cc1CO + Cn1cc(/C=C2\C(=O)Nc3cccnc32)c2ccccc21 [GW441756] (first compound 0.02 µM, partner dose 0.4 µM) | 84.9% | 102% | 96.1% | 80% | 88.9% | 82.3% | 67.7% | 78.6% | 91.7% | 104% |
| COc1ccc(-c2ccc3c(N4CCOCC4)nc(N4C[C@@H](C)O[C@@H](C)C4)nc3n2)cc1CO + COc1cc(N2CCC(N3CCN(C)CC3)CC2)ccc1Nc1ncc(Cl)c(Nc2ccccc2S(=O)(=O)C(C)C)n1 [NVP-TAE684] (first compound 0.02 µM, partner dose 0.08 µM) | 81.3% | 85.7% | 96% | 77.5% | 104% | 81.4% | 65.2% | 96.8% | 97.8% | 95.9% |
| O=S(=O)(c1ccccc1)N(CC(F)(F)F)c1ccc(C(O)(C(F)(F)F)C(F)(F)F)cc1 + O=C1NC(=O)/C(=C/c2ccc(-c3ccc(F)cc3O)o2)S1 [AS252424] (first compound 1.4 µM, partner dose 1 µM) | 91.2% | 109% | 41.8% | 77.1% | 111% | 99.7% | 104% | 103% | 84.7% | 85% |
| COc1ccc(-c2ccc3c(N4CCOCC4)nc(N4C[C@@H](C)O[C@@H](C)C4)nc3n2)cc1CO + CCN(CC)CCCCNc1ncc2cc(-c3cc(OC)cc(OC)c3)c(NC(=O)NC(C)(C)C)nc2n1 [PD173074] (first compound 0.02 µM, partner dose 0.1 µM) | 97% | 93.2% | 111% | 87.6% | 96.5% | 105% | 95.6% | 86.4% | 97.7% | 106% |
| N#Cc1c(O)c2c(-c3ccc(-c4ccccc4O)cc3)csc2[nH]c1=O + O=S(=O)(c1ccccc1)N(CC(F)(F)F)c1ccc(C(O)(C(F)(F)F)C(F)(F)F)cc1 [T0901317] (first compound 2 µM, partner dose 1.4 µM) | 89.7% | 96.3% | 89.5% | 91.5% | 94.8% | 80.2% | 78% | 84.6% | 88.9% | 84.7% |
| c1cc(-c2cnn3cc(-c4ccc(OCCN5CCCCC5)cc4)cnc23)ccn1 [Dorsomorphin] + Cn1cc(/C=C2\C(=O)Nc3cccnc32)c2ccccc21 [GW441756] (first compound 0.4 µM, partner dose 0.4 µM) | 81.5% | 115% | 108% | 93.2% | 99.8% | 64.6% | 68.4% | 87% | 93.5% | 82.3% |
